Results: article PMC4336329 (PLoS ONE, 2015)
Out of some 310,000 compounds screened, about 2,200 (0.71%) showed an effect of 50% or more. Effects have a minus sign here. The list shows a part of the results.

target: human ether-à-go-go-related gene (hERG) potassium channel (human, UniProt Q12809); assay: primary screen, population patch clamp on CHO cells stably expressing hERG
Sequence (Q12809 whole entry, looked up): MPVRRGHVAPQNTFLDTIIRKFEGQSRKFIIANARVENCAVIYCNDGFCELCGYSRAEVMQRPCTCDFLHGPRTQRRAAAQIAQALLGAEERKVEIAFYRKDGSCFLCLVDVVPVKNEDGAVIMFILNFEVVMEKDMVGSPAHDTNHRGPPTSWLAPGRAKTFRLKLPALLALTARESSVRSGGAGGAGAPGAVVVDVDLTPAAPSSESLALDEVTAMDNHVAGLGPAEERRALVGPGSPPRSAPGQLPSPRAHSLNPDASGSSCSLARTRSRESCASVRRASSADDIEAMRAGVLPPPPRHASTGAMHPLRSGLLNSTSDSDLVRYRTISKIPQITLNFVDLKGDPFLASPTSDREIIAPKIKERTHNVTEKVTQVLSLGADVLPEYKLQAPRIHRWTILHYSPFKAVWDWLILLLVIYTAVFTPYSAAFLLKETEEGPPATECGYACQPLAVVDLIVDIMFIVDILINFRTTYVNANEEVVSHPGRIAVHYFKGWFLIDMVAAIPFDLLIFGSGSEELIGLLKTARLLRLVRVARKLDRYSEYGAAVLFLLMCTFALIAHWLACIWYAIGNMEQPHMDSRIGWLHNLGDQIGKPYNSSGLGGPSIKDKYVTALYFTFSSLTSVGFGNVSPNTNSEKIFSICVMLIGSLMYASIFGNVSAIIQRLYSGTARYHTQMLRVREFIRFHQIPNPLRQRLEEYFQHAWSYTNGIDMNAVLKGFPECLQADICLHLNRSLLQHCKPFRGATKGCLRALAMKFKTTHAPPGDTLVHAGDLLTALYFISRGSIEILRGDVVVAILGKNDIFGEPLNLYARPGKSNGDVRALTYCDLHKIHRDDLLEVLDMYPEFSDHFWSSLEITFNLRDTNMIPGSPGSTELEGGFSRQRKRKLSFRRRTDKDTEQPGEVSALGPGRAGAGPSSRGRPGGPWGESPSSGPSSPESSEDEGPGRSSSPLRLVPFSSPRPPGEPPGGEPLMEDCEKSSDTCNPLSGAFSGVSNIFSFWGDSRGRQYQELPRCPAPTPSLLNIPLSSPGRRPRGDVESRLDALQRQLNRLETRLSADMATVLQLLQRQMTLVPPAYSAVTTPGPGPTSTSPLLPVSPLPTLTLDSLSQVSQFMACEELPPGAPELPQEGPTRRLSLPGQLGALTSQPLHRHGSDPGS

Structure (SMILES) | hERG current change (%, negative = inhibition) at 1uM [%]
Oc1c(C(c2ccc(Cl)cc2)N2CCCC2)cc(Cl)c2cccnc12 (stereo not drawn) | 10.8
CCN(C(=O)CSc1n[nH]c(-c2ccccc2)n1)c1c(N)n(Cc2ccccc2)c(=O)[nH]c1=O | 12.1
COc1ccc2c(ccc[n+]2CC(=O)c2ccc(C)cc2)c1.[Br-] | 8.14
O=C(N/C(=C/c1ccccc1)C(=O)N1CCCCC1)c1ccco1 | 19.1
COc1ccc2nc(NC(=O)CSc3n[nH]c(N)n3)sc2c1 | 19.6
COc1ccc(/C=C2\Sc3ccc(C(=O)NCCCN4CCCC4)cc3N(C)C2=O)cc1OC | -4.85
COc1ccc(NC(=O)CN2CCOCC2)cc1S(=O)(=O)N1CCCCC1 | 5.95
Cc1cc(C(=O)NC2CC(C)(C)Cc3c2cnn3-c2ccccc2)n(C)n1 (stereo not drawn) | -3.01
CC(C)(C)NC(=O)c1cccc(NC(=O)c2ccc(NC(=O)c3ccco3)cc2)c1 | -1.66
COc1ccc(CCC(=O)NCC(c2ccco2)N2CCc3ccccc32)cc1 (stereo not drawn) | -4.07
COc1cccc(-c2nnn(CC(=O)O)n2)c1 | 11
Cc1ccc(-c2nc(NCc3ccco3)n(C(=O)c3ccco3)n2)cc1 | 9.27
COCCNC(=O)c1ccc(C2SCC(=O)N2CCc2ccccc2)cc1 (stereo not drawn) | 10.6
CC(OC(=O)c1ccco1)C(=O)NCc1cccs1 (stereo not drawn) | 12.4
CCN(CC)CCn1c(=N)n(CC(O)COc2ccccc2)c2ccccc21.Cl (stereo not drawn) | -20.5
CC(OC(=O)c1cnccn1)C(=O)c1ccccc1 (stereo not drawn) | 5.25
COc1cc(-c2nc(S(=O)(=O)c3ccccc3)c(N3CCOCC3)o2)cc(OC)c1OC | -8.07
N#C/C(=C\c1cc(Cl)ccc1O)C(=O)NC1CCCCC1 | -5.41
CCN(CC)S(=O)(=O)c1cccc2c(N(C)C)cccc12 | -16.1
Cc1ccc(OC2=NS(=O)(=O)c3ccccc32)cc1 | 13.5
Nc1c2c(nc3c1CCC3)CCCC2 | 7.93
Cc1ccc(CCNC(=O)C2=CCN(S(=O)(=O)c3ccccc3)CC2)cc1 | -1.77
Cc1cc(F)ccc1NS(=O)(=O)c1cccc2nsnc12 | 7.8

Structure (SMILES) | hERG current change (%, negative = inhibition) at 1uM [%]
CC(C)Sc1cc(N2CCOCC2)nc(-c2ccc(Cl)cc2)n1 | 16.7
OCCN1CCN(c2nc(N3CCCCC3)nc(N3CCCCC3)n2)CC1 | 14.4
CNC(=O)c1ccsc1NC(=O)CCS(=O)(=O)c1ccc(C)cc1 | 11.3
COc1ccc(C(=O)c2c[nH]c3ccccc23)cc1 | 1.39
COc1ccccc1N1CCN(C(=O)CN(c2ccccc2OC)S(=O)(=O)c2ccccc2)CC1 | -2.9
Cc1ncc(CN2CCCC(C(=O)Nc3ccc(-c4cccc(F)c4)cc3)C2)cn1 (stereo not drawn) | -8.52
COC(=O)c1sc(-c2ccc(Cl)cc2)cc1NC(=O)c1ccccc1C(=O)O | 0.336
O=C(N/N=C/c1ccc(Cl)c([N+](=O)[O-])c1)C1CC1 | 7.95
Cc1ccc(S(=O)(=O)N(C)c2c(C)ccc(S(N)(=O)=O)c2C)cc1 | 5.56
COc1cc(/C=N/n2c(-c3ccccc3)n[nH]c2=S)cc(OC)c1OC | 7.92
CC1CC1C(=O)OCC(=O)N(C)c1c(N)n(Cc2ccccc2)c(=O)[nH]c1=O (stereo not drawn) | -1.73
CCOC(=O)CS(=O)(=O)c1ccc2ccccc2c1 | 1.69
NC(=O)c1ccsc1NC(=O)COC(=O)Cc1cccc2ccccc12 | 16.2
COc1ccccc1CC(NC(C)=O)C(=O)N1CCN(C(=O)c2cccs2)CC1 (stereo not drawn) | 9.62
Cc1cc(C(C)(C)C)cc(C)c1C[n+]1ccc2ccccc2c1.[Cl-] | 5.31
Cc1nc2sc(C(=O)OC(C)C)c(N)c2c(C)c1C | 9.47
CCc1nnc(NS(=O)(=O)c2ccc(NC(=O)c3cccc(OC)c3)cc2)s1 | 13.2
O=C1CC(NCC2CCCO2)C(=O)N1c1ccc(Cl)cc1 (stereo not drawn) | 13.6
CC1Cn2c(nnc2-c2cc3ccccc3cc2O)S1 (stereo not drawn) | 18.7
CCOC(=O)N1CCN(C(=O)CN2C(=O)c3ccccc3S2(=O)=O)CC1 | 9.15
COC(CNC(=O)CN1C(=O)COc2ccc(S(=O)(=O)N3CCOCC3)cc21)OC | 19
CC12CCC(=O)N1C(C(=O)NCCN1C(=O)S/C(=C\c3ccccc3F)C1=O)CS2 (stereo not drawn) | -4.15
Clc1cccc(N/N=C/c2ccc(N3CCOCC3)cc2)c1 | 4.07

Structure (SMILES) | hERG current change (%, negative = inhibition) at 1uM [%]
CCC(=NCc1cc(OC)cc(OC)c1)c1c(O)n(C)c(=O)n(C)c1=O | 2.7
O=C(c1ccco1)N1CCn2c1nc1ccccc12 | 2.94
COC(=O)c1ccc(-c2nc(CN3CCC(C(=O)N4CCOCC4)CC3)c(C)o2)cc1 | 5.85
COc1ccc(CNS(=O)(=O)c2ccc3c(c2)N(C(C)=O)CC(C)S3)cc1 (stereo not drawn) | 4.98
CC1OC2C(OC1C)N(S(C)(=O)=O)CCN2S(C)(=O)=O (stereo not drawn) | 10.4
Cc1ccc(N=C2NC(=O)/C(=C/c3cn(C)c4ccccc34)S2)cc1C | 6.34
Cc1cccc(C)c1NC(=O)Cn1nnc(-c2ccc(N3CCOCC3)cc2)n1 | -15.4
CCCCC(=O)Nc1nnc(SCC(=O)NC2CC2)s1 | 13.2
Cc1ccc(OCc2n[nH]c(=S)n2Cc2ccccc2)cc1 | 2.05
Br.CC(=O)Nc1nc(C)c(-c2csc(Nc3cccc(C(C)=O)c3)n2)s1 | 4.57
O=C(CCn1nc(-c2ccccc2)c2ccccc2c1=O)N1CCN(c2ccccc2)CC1 | 3.09
O=[N+]([O-])c1ccc(Cl)cc1N1CCOCC1 | 11.2
CCOC(=O)c1sc(C)c(C(=O)NCCCN2CCOCC2)c1N | 7.17
COC(=O)c1ccc(NS(=O)(=O)NC(=O)c2cn(C)c3ccccc23)cc1 | 2.57
O=C(CSc1nc2ccccc2o1)NCc1ccco1 | 5.7
Cc1cc(C)c(C)c(OCc2nc(-c3cccnc3)no2)c1 | -5.02
Cc1[nH]n2c(=O)c3c(nc2c1-c1ccc(F)cc1)CCCC3 | 14.2
COc1ccc(NS(=O)(=O)c2c(C)n(C)c(=O)n(C)c2=O)cc1 | 12
CCN(CC)C(=O)c1ccc(NC(=O)CCCSc2ccccc2)cc1 | 8.2
CCC(C)NC(=O)c1nn(C)c(=O)c2ccccc12 (stereo not drawn) | 8.61
COC(=O)c1ccc(NC(=S)NNC(=O)c2ccccc2)cc1 | 9.98
Cn1c(=O)c2c(SCCN3CCOCC3)nc(C3CCCC3)nc2n(C)c1=O | 7.4
NS(=O)(=O)c1ccc(NC(=S)NCc2cccc(Cl)c2)cc1 | 8.6

Structure (SMILES) | hERG current change (%, negative = inhibition) at 1uM [%]
CCCCOc1ccc(C)cc1CN(CCO)CCO.Cl | 13.2
C[C@H](NC(=O)[C@H]1N2C(=O)c3ccccc3C2SC1(C)C)C(=O)N1CCC[C@H]1CO (stereo partly drawn) | 10.3
O=C(COC(=O)c1cccc(S(=O)(=O)N2CCN(c3ccc(F)cc3)CC2)c1)NCC1CCCO1 (stereo not drawn) | 6.46
O=c1[nH]c2ccccc2n2c(C(F)(F)F)nnc12 | 12.1
COc1cccc(/C=N/NC(=O)c2cc3cc([N+](=O)[O-])ccc3s2)c1O | 6.84
Cc1ccccc1-c1nc(CS(=O)CC(=O)NC2CC2)c(C)o1 (stereo not drawn) | 17
Cc1nnc(NC(=O)CCCN2C(=O)c3ccccc3C2=O)s1 | 11.3
Cc1ccc(CNC(=O)c2cccnc2Cl)cc1 | 12
CC(=O)c1cccc(NC(=O)c2ccc3c(c2)CCCC3)c1 | 10.3
COc1ccc(C(=O)N2CCCC2)cc1S(=O)(=O)N1CCOCC1 | 1.63
Cn1cnnc1SCCCN1C(=O)c2cccc3cccc(c23)C1=O | -10.3
CCOc1ccc(-c2cc(N3C(=O)Nc4ccccc4N3O)on2)cc1 | 21.3
CCc1nnc(NS(=O)(=O)c2ccc(NC(=S)NC(=O)c3cccs3)cc2)s1 | 14.7
CN1CCN(c2ccccc2NC(=S)NC(=O)c2cc3ccccc3o2)CC1 | -1.87
CC(=O)c1cccc(NS(=O)(=O)N2CCCCC2)c1 | 13.9
CCc1ccc(N(C(=O)c2csnn2)C(C(=O)NC(C)(C)C)c2ccccn2)cc1 (stereo not drawn) | -17.4
CNC(=O)c1ccccc1Nc1ccc(SC(F)F)cc1 | 15.1
Cc1ccc(NC(=S)N(CCCN2CCN(C)CC2)Cc2cccs2)cc1 | -4.5
Cc1[nH]c2ccccc2c1C(c1ccncc1)N1CCN(c2ccccc2F)CC1 (stereo not drawn) | 3.88
COc1ccc(-c2cc(C(=O)NCCCn3ccnc3)no2)cc1 | 5.65
N#C/C(=C(/O)CO/N=C/c1ccccc1Cl)c1nc2ccccc2[nH]1 | 12.2
